Measured values as given in publication PMC10320511.
These are yes or no findings as the source states them, for the method shown. Binding seen in cells or lysates may run through a third protein. Where a sequence is shown, tags or fusion partners need not be part of it.

By UniProt entry, the sequences of proteins in these tests, tags left out.
UniProt Q01371: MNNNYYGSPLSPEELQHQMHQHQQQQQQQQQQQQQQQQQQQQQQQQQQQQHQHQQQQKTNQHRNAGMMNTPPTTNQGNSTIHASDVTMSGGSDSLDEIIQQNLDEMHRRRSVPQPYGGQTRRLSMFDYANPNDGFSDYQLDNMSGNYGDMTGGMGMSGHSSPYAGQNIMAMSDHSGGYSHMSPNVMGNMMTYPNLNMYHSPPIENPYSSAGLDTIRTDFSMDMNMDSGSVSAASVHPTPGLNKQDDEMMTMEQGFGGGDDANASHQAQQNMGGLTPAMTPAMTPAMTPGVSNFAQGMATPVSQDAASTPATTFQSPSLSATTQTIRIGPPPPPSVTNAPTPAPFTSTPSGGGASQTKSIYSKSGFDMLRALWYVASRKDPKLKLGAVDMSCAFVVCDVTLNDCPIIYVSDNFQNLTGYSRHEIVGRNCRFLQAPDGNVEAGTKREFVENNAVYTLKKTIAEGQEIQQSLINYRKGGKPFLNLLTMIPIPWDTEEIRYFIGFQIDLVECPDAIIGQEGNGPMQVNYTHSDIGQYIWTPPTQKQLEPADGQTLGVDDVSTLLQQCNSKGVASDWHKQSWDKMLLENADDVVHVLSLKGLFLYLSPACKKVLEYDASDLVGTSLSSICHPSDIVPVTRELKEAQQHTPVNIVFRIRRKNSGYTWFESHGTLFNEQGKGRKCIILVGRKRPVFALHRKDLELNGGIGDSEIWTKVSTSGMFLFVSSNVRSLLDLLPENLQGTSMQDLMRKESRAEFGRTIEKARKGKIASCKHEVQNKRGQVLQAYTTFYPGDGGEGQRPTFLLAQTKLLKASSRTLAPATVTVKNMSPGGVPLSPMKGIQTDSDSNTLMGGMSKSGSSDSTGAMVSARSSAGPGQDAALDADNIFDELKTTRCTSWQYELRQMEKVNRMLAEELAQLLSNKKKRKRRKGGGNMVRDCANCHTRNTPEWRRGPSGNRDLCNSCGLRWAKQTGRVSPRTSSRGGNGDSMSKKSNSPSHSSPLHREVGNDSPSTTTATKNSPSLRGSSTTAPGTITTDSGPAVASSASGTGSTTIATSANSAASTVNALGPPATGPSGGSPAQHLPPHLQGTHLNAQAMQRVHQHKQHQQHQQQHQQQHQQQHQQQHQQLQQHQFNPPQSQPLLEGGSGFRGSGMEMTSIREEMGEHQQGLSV

Columns and labels:
[1] = molecular target: T1, FRQ Δ200–249, V5H6-tagged (Neurospora crassa) (UniProt P19970); assay: co-IP; V5H6-tagged FRQ (wild type or mutant) pulled down with V5 agarose from Neurospora lysate (cultures in the light, 25 °C); 50 mM Hepes pH 7.4, 137 mM NaCl, 10% glycerol, 0.4% NP-40; 4 °C, 2 h; Western blot with FRQ, FRH, WC-1 and WC-2 antibodies
T1 sequence: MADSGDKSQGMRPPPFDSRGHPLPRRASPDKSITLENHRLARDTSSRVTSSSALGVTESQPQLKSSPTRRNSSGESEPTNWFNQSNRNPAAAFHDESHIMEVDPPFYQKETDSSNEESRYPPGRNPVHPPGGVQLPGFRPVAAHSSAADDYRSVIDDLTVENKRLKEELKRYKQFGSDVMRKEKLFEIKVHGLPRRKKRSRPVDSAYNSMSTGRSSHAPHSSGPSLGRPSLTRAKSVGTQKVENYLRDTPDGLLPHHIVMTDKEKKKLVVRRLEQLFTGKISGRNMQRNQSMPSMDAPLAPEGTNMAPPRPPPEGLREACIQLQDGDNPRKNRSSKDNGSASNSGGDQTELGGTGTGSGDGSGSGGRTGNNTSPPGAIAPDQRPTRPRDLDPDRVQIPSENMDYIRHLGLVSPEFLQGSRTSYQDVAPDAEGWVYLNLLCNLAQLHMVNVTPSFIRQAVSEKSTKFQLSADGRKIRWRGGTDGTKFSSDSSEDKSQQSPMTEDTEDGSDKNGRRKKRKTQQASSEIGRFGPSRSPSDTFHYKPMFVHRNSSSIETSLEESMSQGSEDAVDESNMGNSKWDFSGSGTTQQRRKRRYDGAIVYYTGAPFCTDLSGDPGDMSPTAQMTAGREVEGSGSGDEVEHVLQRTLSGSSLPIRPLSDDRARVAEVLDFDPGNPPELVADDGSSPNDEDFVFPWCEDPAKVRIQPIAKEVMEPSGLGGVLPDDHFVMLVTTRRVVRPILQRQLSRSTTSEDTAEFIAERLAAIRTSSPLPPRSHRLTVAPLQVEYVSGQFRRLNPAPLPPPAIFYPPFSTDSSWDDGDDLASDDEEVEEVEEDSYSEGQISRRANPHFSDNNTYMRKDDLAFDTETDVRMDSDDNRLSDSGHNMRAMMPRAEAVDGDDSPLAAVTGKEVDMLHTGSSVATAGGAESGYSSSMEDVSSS

[2] = molecular target: T2, FRQ Δ149–193, V5H6-tagged (Neurospora crassa) (UniProt P19970); assay: as above
T2 sequence: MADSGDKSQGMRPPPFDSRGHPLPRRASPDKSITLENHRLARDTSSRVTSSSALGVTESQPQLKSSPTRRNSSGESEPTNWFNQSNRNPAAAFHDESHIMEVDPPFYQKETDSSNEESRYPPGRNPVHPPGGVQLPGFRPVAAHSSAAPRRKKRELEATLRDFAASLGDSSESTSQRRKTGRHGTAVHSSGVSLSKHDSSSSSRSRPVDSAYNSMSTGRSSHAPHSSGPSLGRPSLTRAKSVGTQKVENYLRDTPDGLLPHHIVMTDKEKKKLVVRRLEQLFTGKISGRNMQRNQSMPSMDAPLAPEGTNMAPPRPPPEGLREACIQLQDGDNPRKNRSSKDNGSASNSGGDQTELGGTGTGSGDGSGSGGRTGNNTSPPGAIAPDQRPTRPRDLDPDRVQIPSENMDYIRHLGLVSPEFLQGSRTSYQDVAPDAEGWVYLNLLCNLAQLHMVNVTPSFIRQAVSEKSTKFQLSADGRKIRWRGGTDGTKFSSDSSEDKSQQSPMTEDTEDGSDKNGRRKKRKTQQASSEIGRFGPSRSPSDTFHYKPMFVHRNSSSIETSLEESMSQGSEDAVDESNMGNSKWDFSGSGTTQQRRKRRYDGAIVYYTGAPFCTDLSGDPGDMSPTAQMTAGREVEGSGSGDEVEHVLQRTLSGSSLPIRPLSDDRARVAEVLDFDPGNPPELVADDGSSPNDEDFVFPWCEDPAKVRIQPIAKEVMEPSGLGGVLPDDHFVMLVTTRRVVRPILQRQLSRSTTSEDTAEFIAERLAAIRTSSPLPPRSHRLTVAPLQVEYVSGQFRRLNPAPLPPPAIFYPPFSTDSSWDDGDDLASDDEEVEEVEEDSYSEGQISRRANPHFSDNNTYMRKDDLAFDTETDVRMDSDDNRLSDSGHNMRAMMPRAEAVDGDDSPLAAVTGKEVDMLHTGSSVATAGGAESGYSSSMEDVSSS

binding [1]: no binding
binding [2]: no binding
Substance: White Collar-1 (WC-1) (from UniProt Q01371 1-1167)
